# Data: PubChem BioAssay AID886 (National Center for Advancing Translational Sciences (NCATS), 2007)
# The campaign covered roughly 73,000 compounds. About 2,500 (3.4%) were called active. Inconclusive means that the source gave no clear call. Such entries were picked first, then a sample of the others. Calls come from the whole dose curve; as a rule, active = well fitted inhibition curve with a large enough effect; inconclusive = small, poorly fitted or top-dose-only effect; inactive = no such curve, though single readings can be large or run the other way. Where the call is inconclusive, the potency comes from a doubtful curve fit.
# Target: 3-hydroxyacyl-CoA dehydrogenase type-2 (Homo sapiens) (UniProt Q99714)
# UniProt Q99714, sequence (Q99714 whole entry, looked up): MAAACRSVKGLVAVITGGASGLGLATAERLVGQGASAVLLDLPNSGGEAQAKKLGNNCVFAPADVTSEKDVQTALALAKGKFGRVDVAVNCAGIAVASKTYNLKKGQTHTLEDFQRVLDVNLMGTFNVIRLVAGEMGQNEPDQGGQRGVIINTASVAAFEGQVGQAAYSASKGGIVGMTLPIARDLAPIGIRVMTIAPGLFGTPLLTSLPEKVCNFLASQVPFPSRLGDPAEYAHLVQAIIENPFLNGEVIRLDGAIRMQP
# UniProt Q99714, sequence (Q99714 whole entry, looked up): as above
# Assay: qHTS Assay for Inhibitors of HADH2 (Hydroxyacyl-Coenzyme A Dehydrogenase, Type II); note: nearly all actives have a fitted effect of over 60% in size
# Settings: recombinant HADH2, NADH fluorescence, beta-hydroxybutyryl-CoA; activity change, negative = inhibition: at 57.1 µM (top of the series)
# Method in brief: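 Buffer 100 mM Tris-HCl pH 9.0/0.01% Tween-20; HADH2 20 nM; NAD+ 1 mM; beta-hydroxybutyryl-CoA 90 uM (all final). 15 min cpd preincubation, RT.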
# % is set by controls: 0 for no effect and ±100 for the full control effect; potency is the fitted concentration of half-maximal effect; tags give direction and shape of the fitted curve.
SMILES,Potency,"activity change, negative = inhibition"
Cc1cc(C)nc(N2CCC(C(=O)NCC3CCCCC3)CC2)n1,inactive,
CC[C@@]12CCCN3CCc4c(n(c5ccccc45)C(=O)C1)[C@H]32,inactive,
CC(C)CC(=O)Nc1ccc2oc(-c3ccncc3)nc2c1,inactive,
c1cncc(CNc2nc(-c3cccnc3)nc3ccccc23)c1,"inconclusive: 20 µM [inhibitor, single point]",
O=C(O)c1ccccc1C(=O)Nc1ccccc1,inactive,
O=C(CCN1CCCCC1)c1ccc2c(c1)OCCO2,"inconclusive: 0.158 µM [inhibitor, full curve, poor fit]",
O=C(O)CCSCc1ccc(I)cc1,,inactive: 11.4% [at 11.4 µM]
CCc1nc2c(sc3nc4c(cc32)COC(C)(C)C4)c(=O)n1Cc1ccco1,"inconclusive: 25.1 µM [inhibitor, partial curve]",
O=C(N1CCOCC1)C(F)(F)C(F)(F)C(F)(F)C(F)(F)C(=O)N1CCOCC1,inactive,
COc1ccc2nc3oc(C(=O)N4CCN(c5ccccc5F)CC4)cc3cc2c1,inactive,
Cc1ccc(S(=O)(=O)N2CCN(C(=O)CSc3nnc(C)c(=O)[nH]3)CC2)cc1,inactive,
CC12C=C(/C=C/C=C/c3ccco3)C(C)(C1)C(/C=C/c1ccco1)CC2=O (centres undefined),"inconclusive: 3.98 µM [inhibitor, single point]",
CN(C)C(=O)c1ccc(-c2ccc3ncnc(NCCN4CCOCC4)c3c2)cc1,"inconclusive: 39.8 µM [inhibitor, single point]",
CCCCOc1nc2ccccc2nc1C(C#N)S(=O)(=O)c1ccccc1 (centres undefined),inactive,
Cc1ccc(-n2cnc3c(sc4nccc(N(C)C)c43)c2=O)cc1,inactive,
COc1ccc(Cn2nnnc2C(c2cccnc2)N2CCN(c3ccc(O)cc3)CC2)cc1 (centres undefined),"inconclusive: 31.6 µM [inhibitor, single point]",
CCSc1sccc1C1C(C#N)=C(N)N(c2cccnc2)C2=C1C(=O)CCC2 (centres undefined),"inconclusive: 31.6 µM [inhibitor, single point]",
CCC(C)c1ccc2oc(-c3ccc(NC(=O)Cn4cnc5c(=O)n(C)c(=O)n(C)c54)cc3)nc2c1 (centres undefined),"inconclusive: 39.8 µM [inhibitor, single point]",
COCCN1CCn2c(nc3cc(NC(=O)c4ccc(OC)cc4)ccc32)C1,active: 25.1 µM,
O=C(CSc1cccc[n+]1[O-])c1cc2ccccc2o1,active: 20 µM,
CC(C)Oc1ccccc1-c1nc(SCC(=O)O)n[nH]1,"inconclusive: 25.1 µM [inhibitor, single point]",
CCn1c2ccccc2c2nnc(SCC(=O)NCc3cccs3)nc21,inactive,
Cc1ccc(S(=O)(=O)Nc2nc3ccc(S(=O)(=O)N4CCCC4)cc3s2)cc1,"inconclusive: 31.6 µM [inhibitor, single point]",
CS/C(=N\S(=O)(=O)c1cccs1)NC(=O)CSc1nc2ccccc2s1,active: 12.6 µM,
COc1ccc(-c2csc(NC(=O)C3CCCO3)n2)cc1 (centres undefined),"inconclusive: 20 µM [inhibitor, single point]",

SMILES,Potency,"activity change, negative = inhibition"
CC(C)(C)NC(=O)Cn1nnc(-c2cccs2)n1,active: 31.6 µM,
CCn1nc(C)c(/C=C2\CCCC3=C2OC(N)=C(C#N)C3c2c(C)nn(CC)c2C)c1C (centres undefined),"inconclusive: 39.8 µM [inhibitor, single point]",
COCCn1c(=O)c(-c2ccc(Cl)cc2)nc2cncnc21,inactive,
N#C/C(=C\c1ccc(O)c(O)c1)C(=O)OCCc1cccs1,active: 12.6 µM,
CN1CCc2c(sc(NC(=O)c3ccc(S(=O)(=O)N4CCOCC4)cc3)c2C(N)=O)C1,"inconclusive: 39.8 µM [inhibitor, single point]",
CC1CCN(S(=O)(=O)c2ccc3ncn(CC(=O)N(C)Cc4ccccc4)c(=O)c3c2)CC1,inactive,
Cc1nc(N)c(C#N)c(-c2ccccc2)c1C,"inconclusive: 6.31 µM [inhibitor, single point]",
Cc1ccc(-c2csc(N)n2)s1,"inconclusive: 31.6 µM [inhibitor, single point]",
CCc1c(C)nc2cc(-c3cccs3)[nH]n2c1=O,active: 39.8 µM,
CCn1ncc(C2=NOC(C(=O)NCc3ccccc3)C2)c1C (centres undefined),"inconclusive: 20 µM [inhibitor, partial curve]",
CCn1c(=O)n(CC(=O)NC2CCCC(C)C2C)c(=O)c2ccccc21 (centres undefined),inactive,
Cc1cc(C(F)(F)F)nc(SCC(=O)NC2=NC(=O)C(C)S2)n1 (centres undefined),"inconclusive: 15.8 µM [inhibitor, partial curve]",
N#Cc1nc(-c2cccs2)oc1NCCCN1CCOCC1,active: 25.1 µM,
CN(C)c1oc(-c2ccc(OCc3ccccc3)cc2)nc1C#N,"inconclusive: 31.6 µM [inhibitor, single point]",
CCOC(=O)c1cc2c(=O)n3ccccc3nc2n(CCOC)c1=NC(=O)c1ccncc1,active: 25.1 µM,
CN/C(=C\[N+](=O)[O-])NCCSCc1ccc(CN(C)C)o1,"inconclusive: 3.16 µM [inhibitor, single point]",
Cc1[nH]nc2c1C(c1ccccc1)C1=C(CC(C)(C)CC1=O)N2 (centres undefined),"inconclusive: 6.31 µM [inhibitor, full curve]",
CCCn1c(=O)[nH]c(=O)c2[nH]cnc21,"inconclusive: 6.31 µM [inhibitor, single point]",
COCCn1c(=O)[nH]c2cc(C(=O)NCCN3CCN(c4ccccc4F)CC3)ccc2c1=O,"inconclusive: 31.6 µM [inhibitor, single point]",
CC(=O)O[C@@H]1[C@H]([N+]2(C)CCCCC2)C[C@@H]2[C@@H]3CC[C@@H]4C[C@@H](OC(C)=O)[C@H]([N+]5(C)CCCCC5)C[C@@]4(C)[C@H]3CC[C@]21C,inactive,
Cc1c2c(nc3nc4ccccc4n13)CCCC2=O,"inconclusive: 7.94 µM [inhibitor, single point]",
CCOC(=O)c1sc(=NC(=O)c2cc(OC)c(OC)c(OC)c2)n(C)c1C,"inconclusive: 25.1 µM [inhibitor, single point]",
CC1=NC(Nc2nc(C)c3ccccc3n2)=NC(C)(C)C1,"inconclusive: 39.8 µM [inhibitor, single point]",
CN1CCN(c2nc3ccccc3nc2C(C#N)C(=O)OC2CCCCC2)CC1 (centres undefined),inactive,
O=C(Nc1ccc(CN2CCOCC2)cc1)c1ccc(-c2ccc(Br)cc2)o1,"inconclusive: 7.94 µM [inhibitor, single point]",

SMILES,Potency,"activity change, negative = inhibition"
CO[C@H]1/C=C/O[C@@]2(C)Oc3c(C)c(O)c4c(O)c(c5c(c4c3C2=O)NC2(CCN(CC(C)C)CC2)N=5)=NC(=O)/C(C)=C\C=C\[C@H](C)[C@H](O)[C@@H](C)[C@@H](O)[C@@H](C)[C@H](OC(C)=O)[C@@H]1C,inactive,
CN(C(=O)c1cccc(N2C(=O)C3CC=CCC3C2=O)c1)C1CCCCC1 (centres undefined),inactive,
COC(=O)/C=c1\sc2ncnn2c1=O,"inconclusive: 12.6 µM [inhibitor, partial curve, poor fit]",
Cc1cc(N2CCN(C(=O)c3ccco3)CC2)n2nc(-c3cccc(Cl)c3)cc2n1,"inconclusive: 39.8 µM [inhibitor, single point]",
CCC(Sc1nc2n[nH]c(C)c2c(=N)n1-c1ccc(C)c(Cl)c1)C(=O)N1CCOCC1 (centres undefined),inactive,
CCc1ccc2[nH]c(=O)c(CN(CCN(CC)CC)C(=O)NC3CCCCC3)cc2c1,inactive,
COc1ccc(-c2nnc(-c3ccc(N)cc3)o2)cc1,"inconclusive: 39.8 µM [inhibitor, single point]",
Nc1c(S(=O)(=O)c2ccccc2)c2nc3ccccc3nc2n1/N=C/c1cccc(O)c1,"inconclusive: 39.8 µM [inhibitor, single point]",
N#Cc1nc(-c2ccccc2)oc1N1CCCCC1,"inconclusive: 39.8 µM [inhibitor, single point]",
CCOC(=O)c1cnc2cc3c(cn2c1=O)CCCC3,active: 20 µM,
COC(=O)c1c(NC(=O)c2ccoc2C)sc2c1CCC2,active: 31.6 µM,
CCN1CC2=C(OC(N)=C(C#N)C2c2cccs2)/C(=C/c2cccs2)C1 (centres undefined),"inconclusive: 25.1 µM [inhibitor, single point]",
C=CCn1c(N)c(C(=O)N2CCN(C)CC2)sc1=S,active: 25.1 µM,
O=C(CSc1nc2ccccc2[nH]1)c1cccs1,"inconclusive: 0.158 µM [inhibitor, partial curve]",
COc1ccccc1OCCn1cc(C(=O)c2ccco2)c2ccccc21,"inconclusive: 31.6 µM [inhibitor, single point]",
Cc1cc(S(=O)(=O)Nc2ccccc2C(=O)O)ccc1F,"inconclusive: 39.8 µM [inhibitor, single point]",
N#Cc1cccc(-c2cc(-n3ccnc3)ncn2)c1,"inconclusive: 15.8 µM [inhibitor, partial curve]",
CCCOc1ccccc1C1NC(=O)NC(C)=C1C(=O)OCCOC (centres undefined),inactive,
c1ccc2sc(SN3CCOCC3)nc2c1,"inconclusive: 0.794 µM [inhibitor, full curve]",
COC(=O)CSc1nnc(-c2cccs2)n1-c1ccc(Cl)cc1,inactive,
O=S(=O)(Nc1nccs1)c1cc(Cl)ccc1Cl,"inconclusive: 25.1 µM [inhibitor, single point]",
CCCCCn1c2nc3ccccc3nc2c2c(=O)n(CC3CCCO3)c(C)nc21 (centres undefined),inactive,
CCOC(=O)c1cnn(-c2ncnc3c2oc2ccccc23)c1N,"inconclusive: 3.98 µM [inhibitor, single point]",
O=C(Nc1cnc2sc3c(n2c1=O)CCCC3)c1ccc(F)cc1,"inconclusive: 31.6 µM [inhibitor, single point]",
